# Measured values as given in PubChem BioAssay AID1159614 (National Center for Advancing Translational Sciences (NCATS), 2016).
# About 65 (0.1%) of roughly 45,000 compounds were called active. Calls follow the shape of the dose curve; as a rule, active = well fitted activation curve with a large enough effect; inconclusive = small, poorly fitted or top-dose-only effect; inactive = no such curve, though single readings can be large or run the other way. Some of the results follow.
# Biological target: Galactocerebrosidase (Homo sapiens) (UniProt P54803)
# Experiment: A Novel Cell-Based Assay to Identify Small Molecules for B -Galactocerebrosidase; also: 0% is about no effect; nearly all actives have a fitted effect of over 65% in size
# Conditions: 145M-Twi-hGALC-G270D cells (Twitcher mouse brain line with human GALC G270D), HMU-beta-Gal fluorescence, 48 h; series mostly up to 57.5 µM; activation: at the top concentration
# Summary of the method: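 Mutant human GALC (G270D), stably expressed in a Twitcher mouse brain cell line lacking endogenous GALC, is measured in live-treated cells via 6-hexadecanoylamino-4-methylumbelliferyl-β-galactoside hydrolysis (0.1 mM final, pH 5.2) with fluorescent detection.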
# Sequence of UniProt P54803 (P54803 whole entry, looked up): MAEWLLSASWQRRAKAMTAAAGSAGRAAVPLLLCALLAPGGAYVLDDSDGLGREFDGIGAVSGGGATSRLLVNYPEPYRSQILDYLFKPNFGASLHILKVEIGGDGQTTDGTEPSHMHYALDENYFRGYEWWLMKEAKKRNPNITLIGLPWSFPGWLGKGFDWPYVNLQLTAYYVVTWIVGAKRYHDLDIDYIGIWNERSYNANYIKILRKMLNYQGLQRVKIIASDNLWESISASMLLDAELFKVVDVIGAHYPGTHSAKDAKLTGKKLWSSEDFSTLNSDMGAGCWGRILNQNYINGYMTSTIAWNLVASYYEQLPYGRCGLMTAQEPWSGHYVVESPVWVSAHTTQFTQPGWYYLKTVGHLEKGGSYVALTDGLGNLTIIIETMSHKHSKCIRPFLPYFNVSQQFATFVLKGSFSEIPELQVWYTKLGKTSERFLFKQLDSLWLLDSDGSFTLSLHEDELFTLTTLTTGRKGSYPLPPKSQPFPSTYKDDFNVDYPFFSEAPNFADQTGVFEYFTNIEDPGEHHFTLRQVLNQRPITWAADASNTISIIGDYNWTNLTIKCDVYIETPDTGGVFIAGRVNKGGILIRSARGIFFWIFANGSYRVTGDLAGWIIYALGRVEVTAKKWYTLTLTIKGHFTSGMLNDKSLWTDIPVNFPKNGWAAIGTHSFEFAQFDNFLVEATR
SMILES,activation,Potency
COCCNC(=O)c1cc2n(n1)CCCN(Cc1ccc(C)cc1)C2=O,inactive: -18%,–
CC(=O)Cn1nnc2sc(-c3ccccc3)cc2c1=O,inactive: -3.95%,–
Cc1c(Cl)cccc1Nc1sc(C(=O)c2ccccc2)c(N)c1S(=O)(=O)c1ccccc1,inactive: -12.5%,–
COc1ccc(NC(=O)CC2C(=O)N(c3ccc(C)cc3)C(=O)N2CCc2ccccc2)cc1 (configuration not stated),inactive: -7.54%,–
COc1ccc(CC(=O)Nc2c(C(=O)Nc3ccccc3F)oc3ccccc23)cc1,inactive: -12.5%,–
Cc1ccccc1NC(=O)c1sc2nc(-c3ccncc3)ccc2c1N,inactive: -16.7%,–
O=C(O)c1[nH]n(-c2ccc(S(=O)(=O)O)cc2)c(=O)c1N=Nc1ccc(S(=O)(=O)O)cc1,inactive: -16.6%,–
Brc1ccc(-c2cc3c(N4CCN(c5ccccc5)CC4)nccn3n2)cc1,inactive: 0.761%,–
COCCCNC(=O)CCCn1c(=O)c2cccn2c2cccnc21,inactive: -20.2%,–
Cc1nc(C)c(-c2ccc(SCC(=O)Nc3ccccc3F)nn2)s1,inactive: -8.44%,–
Cc1cc2ccccc2n1-c1ccc(C(=O)N2CCCCC2)s1,inactive: -12.1%,–
COc1cccc(CNC(=O)CCNS(=O)(=O)c2cccc3nsnc23)c1,inactive: 2.7%,–
CCOC(=O)c1ccc(N2C(=O)c3n[nH]c(-c4cccs4)c3C2c2ccc(C)cc2)cc1 (configuration not stated),inactive: -9.02%,–
CCCN(CCC)CCCNC(=O)Cn1ncc2c3ccccc3n(Cc3ccc(F)cc3)c2c1=O,inactive: -16.4%,–
CCCCOc1cccc(C(=O)Nc2cc3nn(-c4ccc(F)cc4)nc3cc2C)c1,inactive: -26.1%,–
CCOC(=O)c1[nH]c2ccccc2c1NC(=O)c1ccc(OC(C)C)cc1,inactive: -18.7%,–
COc1cc(OC)cc(C(=O)Nc2ccc(S(=O)(=O)Nc3cc(C)nc(C)n3)cc2)c1,inactive: -11.8%,–
CCn1cc(S(=O)(=O)c2ccccc2)c(=O)c2cc(C)ccc21,inactive: -10.7%,–
O=C(CSc1nccn1-c1ccc(Cl)cc1)Nc1nc2ccccc2s1,inactive: -11.3%,–
COc1cc(NC(=O)c2cc3c(=O)oc4ccc(C)cc4c3s2)cc(OC)c1OC,inactive: -22%,–
CC(C)(CC(=O)OCC(=O)Nc1ccc(F)c(Cl)c1)CC1=NS(=O)(=O)c2ccccc2N1,inactive: 2.11%,–
NC(=O)N/N=C/c1ccc([N+](=O)[O-])o1,–,inactive
CCCCn1c(COc2cccc(OC)c2)nc2ccccc21,inactive: -18%,–
COc1ccc(CCN2CC(C(=O)NCCc3ccc(C)cc3)CC2=O)cc1OC (configuration not stated),inactive: 5.64%,–
CCN(C(=O)Cn1ncc2c1-c1cc(C)ccc1OC2)c1cc(Cl)ccc1OC,inactive: -3.44%,–

SMILES,activation,Potency
CCc1ccccc1NC(=O)CSc1ncc2c(n1)-c1ccccc1N(Cc1ccc(C)cc1)S2(=O)=O,inactive: -12%,–
Cc1nc(-c2ccccc2)sc1CCNC(=O)c1ccco1,inactive: -10.8%,–
COc1cccc(CNC(=O)CCc2c(C)c3cc4c(C)c(C)oc4cc3oc2=O)c1,inactive: -9.66%,–
CCOC(=O)c1ccccc1NS(=O)(=O)c1c(-c2ccc(C)cc2)csc1C(=O)OC,inactive: -1.06%,–
CCN(Cc1ccccc1)C(=O)CCNS(=O)(=O)c1ccc2c(c1)CC(C)N2C(C)=O (configuration not stated),inactive: -12.4%,–
COc1ccccc1CNS(=O)(=O)c1c(C)nc2sccn2c1=O,inactive: -6.58%,–
Cc1ccc(S(=O)(=O)c2cn(Cc3ccccc3)c3cc(N4CCCC4)c(F)cc3c2=O)cc1C,inactive: -14.2%,–
O=C(OCc1ccccc1Cl)c1ccc(-c2nnn(Cc3ccccc3)n2)cc1,inactive: -4.9%,–
CC(C)Oc1ccc(CNC(=O)c2ccc(NC(=O)c3nsc4ccccc34)cc2)cc1,inactive: -10.3%,–
CC(C)(C)C(=O)Nc1ccc2nc(SCC(=O)N3CCCC3)sc2c1,inactive: -9.99%,–
O=C(Nc1ccc(NC(=O)c2cccs2)cc1)c1ccc(Br)cc1,inactive: -5.16%,–
Cc1ccc(C)c(NC(=O)C(=O)NCCc2csc(-c3ccc(C(F)(F)F)cc3)n2)c1,inactive: -8.92%,–
NCC1CCC(C(=O)Oc2ccc(CCC(=O)O)cc2)CC1 (configuration not stated),inactive: -18%,–
CCN(CCCNC(=O)c1cc2cc3cc(C)ccc3nc2s1)c1cccc(C)c1,inactive: -3.29%,–
COc1ccc(/C=C(/C#N)c2nc(-c3ccc(-c4ccccc4)cc3)cs2)cc1,inactive: 7.8%,–
CCOC(=O)Cn1c(=O)cc(-c2ccccc2)c2c(C)nn(C)c21,inactive: -15.8%,–
CCC(C)NC(=O)Cn1c(=O)n(-c2ccc(C)cc2)c(=O)c2ccccc21 (configuration not stated),inactive: -2.68%,–
Cc1nc(-c2ccccc2)sc1-c1ccc(SCC(=O)Nc2ccc(F)cc2F)nn1,inactive: -8.17%,–
Cc1oc2ncnc(N3CCCCC3)c2c1C(=O)NCC1CCN(Cc2ccc(F)cc2)CC1,inactive: -13.2%,–
CCN(CC)CCOc1ccc(/C(=C(\Cl)c2ccccc2)c2ccccc2)cc1,inactive: -19.2%,–
CCc1ccccc1N(CC)C(=O)c1cc2c(s1)-c1ccccc1OC2,inactive: -10.3%,–
COc1ccc(OC)c(CCNC(=O)c2ccc(CS(=O)Cc3cccc(Cl)c3)o2)c1 (configuration not stated),inactive: -9.51%,–
Cc1ccccc1CSc1nc2nc(C)c(Cc3ccccc3)c(C)n2n1,inactive: -12.7%,–
CCc1ccc(-n2nc(CO)c(C(=O)NCc3ccccn3)n2)cc1,inactive: -7.22%,–
CCCCNc1nc(Oc2ccc(=O)n(-c3ccccc3)n2)nc(N(C)C)n1,inactive: 2.16%,–

SMILES,activation,Potency
COc1ccc(-n2ncc(C(=O)N3CCN(c4ccccn4)CC3)c2C2CCN(C(=O)OC(C)(C)C)CC2)cc1,inactive: -7.84%,–
CCC(CC)c1nn2c(=O)cc(COc3ccc(NC(=O)c4ccc(Cl)cc4)cc3)nc2s1,inactive: 3.86%,–
COCCNc1nc(NCc2ccccc2OC)c2cnn(C)c2n1,inactive: -9.88%,–
CC(Sc1oc(-c2ccco2)nc1S(=O)(=O)c1ccc(Br)cc1)c1ccccc1 (configuration not stated),inactive: -2.03%,–
COc1ccc(N2CCN(c3nc(-c4ccccc4F)nc4ccccc34)CC2)cc1,inactive: -14.3%,–
O=C(CN(c1cccc(Br)c1)S(=O)(=O)c1ccccc1)N1CCc2ccccc2C1,inactive: -28%,–
COc1ccc(N2CCN(CCCNC(=O)c3cnn(-c4ccc(F)cc4)c3-n3cccc3)CC2)cc1,inactive: -25%,–
CCOC(=O)c1cn(CC(=O)Nc2cccc(Cl)c2C)nn1,inactive: -18.7%,–
Nc1nc(-c2ccccc2)c(Br)c(=O)[nH]1,inactive: -12.6%,–
COCCNC(=O)c1c(NC(=O)Cc2coc3cc(C)ccc23)sc2c1CCCC2,inactive: 13.5%,–
CCC(C)NC(=O)c1ccc2c(c1)N(Cc1cccc(Cl)c1)C(=O)c1ccccc1S2=O (configuration not stated),inactive: -16.7%,–
CCOc1ccccc1NC(=O)C(NS(=O)(=O)c1cccc2nsnc12)c1ccccc1 (configuration not stated),inactive: -8.26%,–
Cc1nnc(N2CCN(c3ccccc3F)CC2)c2c1nnn2Cc1ccc(F)cc1,inactive: -3.06%,–
CN(C(=O)c1nn(C)c2c1COc1ccccc1-2)c1cccc(C(F)(F)F)c1,inactive: -1.33%,–
CN(Cc1ccccc1)S(=O)(=O)c1ccc(F)c(C(=O)Nc2cccc(Cl)c2Cl)c1,inactive: -4.72%,–
Cc1ccc(C(C)(C)C)c(OCC(=O)NCCc2nc3ccccc3[nH]2)c1,inactive: -8.07%,–
Cc1ccccc1NS(=O)(=O)c1ccc(Br)s1,inactive: -2.84%,–
COc1ccc(-c2nc3sc(CCNC(=O)c4cc(Cl)ccc4OC)c(C)n3n2)cc1,inactive: -9.84%,–
CCOc1ccccc1-n1nnc(-c2nc(-c3ccccc3)no2)c1N,inactive: -13.3%,–
Cc1cccc(CC2C(=O)Nc3ccccc32)c1 (configuration not stated),inactive: -16.6%,–
CCOc1ccc(C2=NC(c3cccs3)=Nc3ccc(C(C)C)cc3N2)cc1,inactive: -11.5%,–
CCOC(=O)c1c(NC(=O)c2ccc(S(=O)(=O)N(CCOC)CCOC)cc2)sc2c1CC(C)(C)NC2(C)C,inactive: -14.1%,–
Cc1c(/C=C(\C#N)C(=O)Nc2cccc(Cl)c2)c2ccccc2n1Cc1ccccc1Cl,inactive: -12%,–
CCN(CC)c1cc2c(cc1F)c(=O)c(S(=O)(=O)c1cc(C)ccc1C)cn2Cc1ccccc1,inactive: -7.62%,–
CCOc1ccc(C2c3cc(OCC)c(OCC)cc3CC(=O)N2c2ccc(C(=O)O)cc2)cc1OCC (configuration not stated),inactive: -5.41%,–

SMILES,activation,Potency
CCc1ccc(C(=O)COC(=O)C(Cc2c[nH]c3ccccc23)NC(=O)c2ccc(Br)cc2)cc1 (configuration not stated),inactive: -10.6%,–
COc1ccccc1N1CCN(c2ncnc3c2cnn3C)CC1,inactive: -13.5%,–
COc1ccc(S(=O)(=O)N(CCc2ccccc2)CC(=O)Nc2cccc(OC)c2)cc1,inactive: -10.3%,–
CCOC(=O)c1cccc(NC(=O)C2CCN(S(=O)(=O)c3ccc4c(c3)oc(=O)n4C)CC2)c1,inactive: -16.5%,–
COc1ccc(CCN2C(=O)c3oc4ccc(F)cc4c(=O)c3C2c2ccc(C(C)(C)C)cc2)cc1 (configuration not stated),inactive: -12.1%,–
Cc1nc2ccc(S(=O)(=O)N(C)CC(=O)Nc3ccc(Br)c(C)c3)cc2s1,inactive: -7.09%,–
CCOc1ccc(C2CC(=O)c3c([nH]c(C(=O)OCc4ccccc4)c3C)C2)cc1 (configuration not stated),inactive: -19.8%,–
CCc1cccc(C)c1NC(=O)Cn1ccn(-c2ccc(F)cc2)c(=O)c1=O,inactive: -12.4%,–
Cc1ccc(Cn2nnc(C(=O)Nc3ccc(F)c(F)c3)c2N)cc1,inactive: -16.3%,–
COc1ccc(S(=O)(=O)N2CCC(n3c(C(F)(F)F)nc4cccnc43)CC2)cc1OC,inactive: -0.206%,–
Cc1ccccc1-c1nn2c(=O)cc(CN3CCN(C(=O)c4ccc(C(C)(C)C)cc4)CC3)nc2s1,inactive: 1.37%,–
O=C(CSc1nc(-c2ccccc2)no1)N1CCCCC1,inactive: -6.87%,–
CCOC(=O)N1CCc2c(sc3c2c(=O)n(CCc2ccccc2)c(=O)n3Cc2ccc(F)cc2)C1,inactive: -13.8%,–
COc1ccc(C(=O)CN2C(=O)N(c3ccc(C(C)=O)cc3)S(=O)(=O)c3ccccc32)cc1,inactive: 11.3%,–
COc1ccc(NC(=O)c2cn(-c3ccccc3)nc2-c2ccc(C)cc2)cc1,inactive: -4.79%,–
COC(=O)c1ccc(NC(=O)CN2CCN(c3ccc(Cl)cc3)CC2)cc1,inactive: -4.73%,–
O=C1CC(c2ccccc2)Cc2[nH]c(=O)c(C(=O)Nc3cccc(Cl)c3)cc21 (configuration not stated),inactive: -11.4%,–
CCOc1ccccc1-n1cc2c(c1-c1ccc(OC)cc1)c(=O)n(C)c(=O)n2C,inactive: -14%,–
Cc1ccc(N(C)C(=O)C2CCN(S(=O)(=O)c3ccc4c(c3)CCCN4C(=O)C3CCC3)CC2)cc1,inactive: 13.6%,–
CCCOC(=O)CSc1nnc2ccc3ccccc3n12,inactive: -19.9%,–
O=C(CSc1nc2ccccc2nc1Cc1ccccc1)Nc1ccc2c(c1)OCO2,inactive: -6.63%,–
CCOC(=O)c1cccc(NC(=O)C(C)n2c(C)c3cnn(-c4ccccc4)c(=O)c3c2C)c1 (configuration not stated),inactive: -18.5%,–
